In PubChem BioAssay AID1508624 (National Center for Advancing Translational Sciences (NCATS), 2021):
Out of some 48,000 compounds screened, about 120 (0.25%) were called active. Roughly 4% stayed inconclusive and do not appear here. Calls follow the shape of the dose curve; as a rule, active = well fitted activation curve with a large enough effect; inconclusive = small, poorly fitted or top-dose-only effect, or another doubt; inactive = no such curve, though single readings can be large or run the other way. The list shows a part of the results.

Assay: Primary qHTS for Identification of Small Molecule Activators of Huntingtin-Antisense Promoter Activity; also: nearly all actives have a fitted effect of over 55% in size
Settings: HEK293 HTT-AS promoter firefly luciferase reporter (activity 0% = vehicle and -100% = no light), 24 h; series mostly up to 57.5 µM; activity change, positive = activation: at the top concentration
Method in brief: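 HEK293 cells carrying firefly luciferase reporters were seeded at 2,500 per well in Opti-MEM and cultured for 24 h. They were then treated with compounds at up to 57.5 uM final for 24 h at 37 degrees C before Dual-Glo luminescence readout.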

Row | Structure (SMILES) | activity change, positive = activation
1 | CCOC(=O)C1CCN(c2cc3c(cc2NC(=O)c2ccc(Cl)cc2)n(C)c(=O)n3C)CC1 | inactive: -9.49%
2 | COC(=O)c1ccc(Cl)cc1NC(=O)N1CC2CCCN2c2ccccc21 (stereo not drawn) | inactive: -28.3%
3 | COc1ccc(S(=O)(=O)NCc2ccc3c(c2)CCN3C(=O)c2ccccc2)cc1OC | inactive: -27.5%
4 | COc1ccc(NC(=O)CN2C(=O)CCn3nc(-c4cccn4C)cc32)cc1 | inactive: -3.09%
5 | Cc1cc(C)c(Nc2nc3ccccc3n3c(C)nnc23)c(C)c1 | inactive: -9.43%
6 | Cc1ccc(NC(=O)C(=O)NCC(c2cccnc2)N2CCN(Cc3ccccc3)CC2)cc1C (stereo not drawn) | inactive: -21.7%
7 | COc1ccccc1OCCn1c(NC(=O)c2ccccc2Cl)nc2ccccc21 | inactive: 5.78%
8 | CCOc1ccccc1NC(=O)c1c(NC(=O)COc2ccc(Cl)cc2)sc2c1CCCCC2 | inactive: -14.6%
9 | COCCNC(=O)CCC(=O)NNc1nc2ccccc2c2nc(C)nn12 | inactive: -11.9%
10 | Cc1ccc(NC(=O)C2(c3ccc4c(c3)OC(F)(F)O4)CC2)nc1-c1cccc(C(=O)O)c1 | inactive: -34.9%
11 | CS(=O)(=O)N1CCc2cc(C(=O)N3CCN(c4cccc(Cl)c4)CC3)ccc21 | inactive: -2.8%
12 | Cc1ccc(C)c(N2CCN(C(=O)c3cn(CC(C)C)c(=O)c4c3c3ccccc3n4C)CC2)c1 | inactive: -10.4%
13 | COCCCNc1nc(NCc2ccccc2OC)c2cnn(C)c2n1 | inactive: -25.8%
14 | Cc1ccc(NC(=O)C2(c3cccs3)CCOCC2)cc1Cl | inactive: -16.6%
15 | COc1ccc(Br)cc1C1C(C(=O)Nc2ccc(C)cc2C)=C(C)Nc2ncnn21 (stereo not drawn) | inactive: -20.7%
16 | Cc1ccc(C)c(CSc2nc(-c3ccccc3F)nc3c2Cc2c(CO)cnc(C)c2O3)c1 | inactive: -9.65%
17 | COc1cccc(NC(=O)Cn2nnc(C(=O)NCc3cccs3)c2N)c1 | inactive: -0.23%
18 | COc1ccc(NC(=O)Cn2c(=O)n(-c3cc(C)cc(C)c3)c(=O)c3oc4ccccc4c32)cc1OC | inactive: -26.1%
19 | O=C(NCCc1ccccc1)c1nn(-c2ccccc2F)nc1CO | inactive: -24.9%
20 | Cc1ccc2c(CNCCc3ccccc3)c(C(=O)O)n(Cc3ccccc3C)c2c1 | inactive: -20%
21 | CCC(Cn1nnc2ccccc2c1=O)NC(=O)Nc1cc(C)cc(C)c1 (stereo not drawn) | inactive: -18.2%
22 | CC(C)C(=O)Nc1nnc2n1CCS2 | inactive: -1.88%
23 | Cc1nc(N2CCCC2)c2c(C(=O)N3CCN(c4ccccc4)CC3)c(C)oc2n1 | inactive: -7.7%
24 | Cc1cc2c(n1-c1ccc(C(=O)NCCc3ccc(Cl)cc3)cc1)CCCC2 | inactive: 4.35%

Row | Structure (SMILES) | activity change, positive = activation
25 | CC(=O)N1CCCc2cc(S(=O)(=O)N3CCCC(C(=O)N4CCN(c5cccc(Cl)c5)CC4)C3)ccc21 (stereo not drawn) | inactive: -51%
26 | CCc1ccc(C(=O)c2cn(CC(=O)Nc3ccc(Cl)cc3)c3cc4c(cc3c2=O)OCO4)cc1 | inactive: -29.5%
27 | CCOc1ccc(CNC(=O)c2cccc(NC(=O)N3CCSc4ncccc43)c2)cc1OC | inactive: -36.8%
28 | Cc1ccc(S(=O)(=O)n2nc(C)c(S(=O)(=O)N3CCCCCC3)c2C)cc1 | inactive: -17.1%
29 | Cc1ccc(C)c(CSc2nnc3[nH]c(=O)cc(C)n23)c1 | inactive: 1.67%
30 | CC(C)c1nn2c(=O)cc(COC(=O)c3cccc(NC(=O)COc4ccc(F)cc4)c3)nc2s1 | inactive: -29.6%
31 | COc1ccc(C)cc1NC(=O)c1noc2c1CSc1ccccc1-2 | inactive: -10.9%
32 | COc1ccc(C2C(C(=O)Nc3ccccc3)=C(C)Nc3c(C(=O)Nc4ccccc4)cnn32)cc1 (stereo not drawn) | inactive: -22.2%
33 | Cc1ccccc1CNC(=O)c1ccc2c(c1)c(C)c(C)n2C | inactive: 0.753%
34 | CN(C)c1ccc(CNC(=O)c2ccc(Cn3c(SCc4ccccc4)nc4cccnc43)cc2)cc1 | inactive: 7.88%
35 | Cc1ccc(Cl)cc1NC(=O)C1CCN(c2nnc(C)c3c(C)n(-c4ccccc4)nc23)CC1 | inactive: -0.767%
36 | CCc1ccc(CNC(=O)c2cnc3sc(N4CCCC4)nn3c2=O)cc1 | inactive: 0.497%
37 | Cc1ccccc1Cn1nnc2c(=O)[nH]c(C3CCN(C(=O)c4ccc(F)cc4)CC3)nc21 | inactive: -27.3%
38 | Cc1cc(C)c(Cn2c3ccccc3c3cnn(CC(=O)NCc4cccs4)c(=O)c32)c(C)c1 | inactive: -15.5%
39 | Cc1cccc(N(C)c2nc3ccccc3c3nnc(C)n23)c1 | inactive: -22.1%
40 | CCOc1ccc(C(=O)Cn2c(=O)n3nc(CCn4nc(C)cc4C)nc3c3cc(OC)c(OC)cc32)cc1 | inactive: -18.8%
41 | Cc1ccccc1N1CCN(S(=O)(=O)c2nnc(NC(=O)c3ccc(C(C)C)cc3)s2)CC1 | inactive: -20.1%
42 | COc1cc(NC(=O)c2cc(C3CC3)nc3c2c(C)nn3-c2ccccc2)cc(OC)c1 | inactive: -34.4%
43 | COC(=O)Cn1c(=O)c2cccn2c2ccc(F)cc21 | inactive: -14.7%
44 | CCCCCn1c(NCc2ccc(OC)cc2)nc2ccccc21 | inactive: -38.1%
45 | CCS(=O)(=O)N1CCCC(C(=O)NCCOC)C1 (stereo not drawn) | inactive: -7.28%
46 | Cc1ccc(NC(=O)CSc2nnc(-c3ccc([N+](=O)[O-])cc3)o2)c(C)c1 | inactive: 4.11%
47 | Cc1ccc(C(=O)c2cn(CC(=O)Nc3ccc(C(C)C)cc3)c3nc(C)ccc3c2=O)cc1 | inactive: -9%
48 | Cc1cc(C)n(-c2nc3ccccc3nc2Nc2ccc(N(C)C)cc2)n1 | inactive: 3.67%
